# Results published in PubChem BioAssay AID493208 (National Center for Advancing Translational Sciences (NCATS), 2011).
# Among all 44,000 compounds or so, about 340 (0.77%) were called active. Inconclusive results (about 5%) are left out. The call rests on the fitted dose curve; in most records, active means well fitted inhibition curve with a large enough effect; inconclusive means small, poorly fitted or top-dose-only effect; inactive means flat fitted curve, though single readings scatter. This is one part of the list.
# Experiment: Acumen qHTS Assay for Inhibitors of the mTORC1 Signaling Pathway in MEF (Tsc2-/-, p53-/-) Cells: Sytravon; further: nearly all actives have a fitted effect of over 50% in size;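 on activity change, negative = inhibition: plate controls were DMSO for no effect and rapamycin for full effect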
# Details: phospho-rpS6 immunofluorescence/PI, 24 h; series mostly up to 38.3 µM; activity change, negative = inhibition: at the top concentration
# How it was run: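 Readout is phospho-S6 Alexa 488 signal normalized to PI per well, reported as % active cells with thresholds set from rapamycin (7.5 nM) and DMSO controls. Cells: Tsc2-/-, p53-/- MEFs, 24 hrs compound at 37 C; PI cell number serves as viability.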
# Potency means the concentration at half of the fitted maximal effect.
SMILES,"activity change, negative = inhibition",Potency
O=C(NCc1noc2ccccc12)Nc1ccc(F)cc1F,inactive: -1.71%,–
CCOC(=O)c1nc(Nc2ccccc2C)c2ccccc2n1,inactive: 6.13%,–
CCOc1cccc(C2c3[nH]c4ccccc4c3CCN2C(=O)CCc2ccccc2)c1 (stereo not given),inactive: 0.0362%,–
CCN(CC)S(=O)(=O)c1ccc2nc(NC(=O)c3ccc(Br)o3)sc2c1,inactive: -12.9%,–
O=C(Nc1nc2ccc(Cl)cc2s1)c1ccc(S(=O)(=O)N2CCCC2)cc1,inactive: 6.66%,–
CCN(CC)c1ccc(C(=O)N2CCC(c3ccncc3)CC2)cc1,inactive: -8.36%,–
CCOC(=O)C1CCCN(C(=O)c2ccc3c(c2)N(Cc2cccc(Cl)c2)C(=O)c2ccccc2S3(=O)=O)C1 (stereo not given),inactive: -11.4%,–
COc1ccc(C)cc1NC(=O)CN1C(=O)COc2ccc(S(=O)(=O)N3CCCCCC3)cc21,inactive: -4.1%,–
CCCN(C(=O)Cn1c(=O)oc2cc(Cl)ccc21)c1ccc(C(C)C)cc1,inactive: -0.616%,–
CC(C)c1ccc(NC(=O)CN2C(=O)c3cccc4cccc2c34)cc1,inactive: 4.27%,–
CCC1CCc2c(sc(NC(=O)C3c4ccccc4Oc4ccccc43)c2C#N)C1 (stereo not given),inactive: -9.97%,–
CCc1ccc(S(=O)(=O)c2cn(C)c3cc(OC)c(OC)cc3c2=O)cc1,inactive: -11.2%,–
CCOc1ccccc1CNC(=O)CSc1n[nH]c(-c2ccccc2Cl)n1,inactive: -19.4%,–
Cc1cc(C)c(S(=O)(=O)NCC(c2ccc(N(C)C)cc2)N2CCc3ccccc32)c(C)c1 (stereo not given),inactive: 0%,–
Cc1ccc(C)c(CN2C(=O)c3ccccc3S(=O)(=O)c3ccc(C(=O)N4CCN(C)CC4)cc32)c1,inactive: -15.9%,–
Cc1cc(Nc2cc(Cl)ccc2C)n2nc(Cc3ccccc3)nc2n1,inactive: 2.42%,–
O=C(CN1C(=O)COc2ccc(S(=O)(=O)N3CCCCC3)cc21)NCc1ccccc1Cl,inactive: -19.5%,–
COc1cccc(CNC(=O)CCc2nc(-c3ccc(C)cc3)no2)c1,inactive: -14.1%,–
COc1ccccc1NC(=O)CSc1oc(-c2ccco2)nc1S(=O)(=O)c1ccc(Br)cc1,inactive: -16.5%,–
Cc1cc(OCCn2cc(C(=O)c3ccco3)c3ccccc32)ccc1Cl,inactive: -24.7%,–
COc1ccc(-c2nnc(SCC(=O)Oc3cccc(C)c3C)o2)cc1,inactive: 1.33%,–
Cc1nn(CC(=O)NCc2cccc(F)c2)c(=O)c2c(C)n(-c3ccc(Cl)cc3)nc12,inactive: -0.315%,–
COc1ccc(-n2cc(C(=O)NCc3ccc(Cl)cc3)c3ccccc3c2=O)cc1,inactive: 0%,–
COc1ccc2nc(N(Cc3cccnc3)C(=O)c3ccco3)sc2c1,inactive: -0.916%,–

SMILES,"activity change, negative = inhibition",Potency
CCOC(=O)C1=C(CN2CCN(c3cc(C)ccc3C)CC2)NC(=O)NC1c1ccccc1 (stereo not given),inactive: -18.7%,–
COc1ccc(N(C(=O)c2ccccc2C)S(=O)(=O)c2ccc(C)cc2)cc1,inactive: -0.14%,–
Cc1ccc2c(c1)c1c(c(=O)n(-c3ccccc3)c(=O)n1CC(=O)NCCC1=CCCCC1)n2C,inactive: -14.7%,–
CC1CN(C(=O)CCC(=O)NCc2cccs2)c2cc(Cl)ccc2O1 (stereo not given),inactive: -3.38%,–
CCOC(=O)c1cc(-c2ccc(C)cc2)n(CC(=O)Nc2ccc(OC)c(Cl)c2)c1C,inactive: -21.7%,–
Cc1ccc(CCNC(=O)c2cc3sccc3n2Cc2ccc(Cl)cc2)cc1,inactive: -6.63%,–
COc1cccc(CN2C(=O)C3(SCC(=O)N3c3cc(C)cc(C)c3)c3ccccc32)c1 (stereo not given),inactive: -6.64%,–
O=C(c1ccc2c(c1)OCCO2)N(Cc1cccnc1)c1nc2ccc(Cl)cc2s1,inactive: 3.79%,–
CCc1ccc2oc(C(=O)NCCc3ccc(OC)c(OC)c3)cc(=O)c2c1,inactive: -9.88%,–
COc1ccccc1N1CCN(S(=O)(=O)c2cc(-c3cc(C)no3)ccc2C)CC1,inactive: 0.724%,–
CCC(C)NC(=O)c1ccccc1NC(=O)C1CCN(S(=O)(=O)Cc2ccccc2)CC1 (stereo not given),inactive: 3.8%,–
Cc1ccc(-c2nnn(CC(=O)N(CC(=O)NCCC(C)C)c3ccc(F)cc3)n2)cc1,inactive: -3.29%,–
CCCCCOC(=O)c1ccc(Nc2nc(C(=O)OCC)nc3ccccc23)cc1,inactive: 9.18%,–
Cc1ccc(C(C)C)c(OCC(=O)Nc2nc3c(s2)CCCC3)c1,inactive: -16.1%,–
COc1ccc(S(=O)(=O)Nc2cc(-c3cn4cccc(C)c4n3)ccc2C)cc1C,inactive: -22.1%,–
O=C(NCCc1ccc(F)cc1)C(=O)NCC(c1ccc2c(c1)OCO2)N1CCOCC1 (stereo not given),inactive: -4%,–
Cc1ccc2nc(-c3c[nH]c4ccccc34)c(Nc3ccccc3)n2c1,inactive: -7.32%,–
Cc1coc2c1c(C)cc1oc(=O)c(CC(=O)NCc3ccc(Cl)cc3)c(C)c12,inactive: -0.289%,–
CCCN1CCN(CC2=C(C(=O)OCC)C(c3ccc(OC(C)C)cc3)NC(=O)N2)CC1 (stereo not given),inactive: -1.03%,–
CSc1nc2c(sc3ccccc32)c(=O)n1Cc1ccc(C)cc1,inactive: -0.799%,–
CCn1c(=O)c(=O)n(CC)c2cc(N3CCCCC3)c(NC(=O)c3ccccc3OC)cc21,inactive: -3.45%,–
COc1ccccc1-c1c(C)nn2c(N3CCN(c4ccccc4)CC3)cc(C)nc12,inactive: 3.12%,–
CCOc1ccc(-c2nc(CSCC(=O)NCCc3ccc(OCC)c(OCC)c3)c(C)o2)cc1,inactive: 0.0781%,–
COc1ccc(OC)c(CNC(=O)CN2N=C(c3ccc(Cl)cc3)CCC2=O)c1,inactive: 1.98%,–

SMILES,"activity change, negative = inhibition",Potency
CCC(C)NC(=O)CSc1c2c(nc3cc(Cl)ccc13)CCCC2 (stereo not given),inactive: -3.11%,–
O=C(Nc1ccc2nc(SCC(=O)N3CCOCC3)sc2c1)c1ccc(Br)cc1,inactive: -6.89%,–
COc1ccc(C(=O)Nc2cc(-c3nc4ccccc4s3)ccc2OC)cc1,–,active: 16.5 µM
C=Cc1ccc(Cn2c(C(=O)O)c(CNC3CCCCC3)c3ccc(OC)cc32)cc1,inactive: -12%,–
COc1cccc(CNC(=O)C(=O)NCC(c2ccc3c(c2)OCO3)N2CCOCC2)c1 (stereo not given),inactive: 0.0602%,–
CCOC(=O)c1ccccc1NC(=O)Nc1cc2c(cc1N1CCCC1)n(C)c(=O)n2C,inactive: -0.519%,–
CCOc1ccc(NC(=O)CSc2nnc(CNC(=O)C34CC5CC(CC(C5)C3)C4)n2CC)cc1,inactive: 3.73%,–
COc1ccc(-n2nc3cc(C)c(NC(=O)Cc4ccc(Cl)cc4)cc3n2)cc1,inactive: 1.31%,–
Cc1cc2oc(C(=O)Nc3cccc(-c4nc5ccccc5o4)c3)c(C)c2cc1C,inactive: 0%,–
CCCN1CN=C(NS(=O)(=O)c2ccc(NC(C)=O)cc2)NC1,inactive: -1.81%,–
O=C(NCCc1ccccc1)c1ccc(Cn2c(SCc3ccccc3F)nc3cccnc32)cc1,inactive: -13.6%,–
O=C(CSc1nc(=O)n(Cc2ccncc2)c2c1CCC2)Nc1ccc(F)cc1F,inactive: 0.618%,–
CCc1ccc(NC(=O)CSc2nc(-c3cccc(OC)c3)nc3c2Cc2c(CO)cnc(C)c2O3)cc1,inactive: -2.34%,–
CC(Oc1ccccc1)C(=O)Nc1ccccc1C(=O)OCc1cc(=O)n2nc(C(C)C)sc2n1 (stereo not given),inactive: 0%,–
CCCC12CN3CC(CCC)(CN(C1)C3c1ccc(OC(C)C)cc1)C2=O (stereo not given),inactive: -23.7%,–
COc1cccc(Cn2c(C)c(CNC3CCCCC3)c(C(=O)O)c2C)c1,inactive: -1.28%,–
Cc1c(C(=O)N(C)C)sc2c1c(=O)n(-c1ccc(Cl)c(Cl)c1)c(=O)n2CC(=O)N1CCCCC1C (stereo not given),inactive: -1.86%,–
CCCc1cc(=O)[nH]c(Nc2cc(C)cc(C)c2)n1,inactive: 3.24%,–
COc1cc(C(=O)N(Cc2ccc(N(C)C)cc2)CC2CCCO2)cc(OC)c1OC (stereo not given),inactive: 3.24%,–
COc1ccc(-c2noc(-c3ccc(N4CCN(c5ccccc5OC)CC4)c([N+](=O)[O-])c3)n2)cc1,inactive: 3.43%,–
COc1ccc(N2CC(NC(=O)C3CCCCC3)CC2=O)cc1OC (stereo not given),inactive: 0.166%,–
O=C(c1cnc2c(c1)COc1ccc(Cl)cc1-2)c1ccccc1O,inactive: -8.4%,–
COc1ccc(N2CCN(C(=O)CN3C(=O)COc4ccc(S(=O)(=O)N5CCC(C)CC5)cc43)CC2)cc1,inactive: -25.2%,–
CCOc1ccc(NC(=O)CCCOc2cc(=O)n(C)c3ccccc23)cc1,inactive: -10.8%,–

SMILES,"activity change, negative = inhibition",Potency
Cc1ccc2nc(-c3ccc(C)o3)c(Nc3ccc4c(c3)OCCO4)n2c1,inactive: -3.66%,–
COc1ccc(NC(=O)c2oc3ccccc3c2NC(=O)Cc2coc3ccc(C)cc23)cc1,inactive: 4.81%,–
CCCCN(CC)C(=O)c1nn(-c2ccc(OC)cc2)c(=O)c2c1c1ccccc1n2C,inactive: -7.53%,–
COc1ccc(OC)c(CNC(=O)c2ccc3c(c2)c(C)c(C)n3C)c1,inactive: 2.71%,–
Cc1ccc(C)c(N2CCN(C(=O)c3cc4c(=O)oc5ccccc5c4s3)CC2)c1,inactive: 1.25%,–
O=C(Cn1c(=O)n(-c2ccccc2)c(=O)c2ccc(C(=O)NCc3ccc4c(c3)OCO4)cc21)Nc1ccc(Br)cc1,inactive: -19.6%,–
CCOc1cc(CNC(=O)c2ccc3nc(C(C)C)oc3c2)cc(OCC)c1OCC,inactive: 5.1%,–
O=C(CSc1nc2ncccc2o1)Nc1cccc(C(F)(F)F)c1,inactive: -16.6%,–
COc1ccc(N2CCN(S(=O)(=O)CCNC(=O)Cc3ccc(OC)c(OC)c3)CC2)cc1,inactive: -4.02%,–
Cc1nc(SCC(=O)Nc2nsc(-c3ccc(C(C)(C)C)cc3)n2)c2c3c(sc2n1)CCCC3,inactive: 0.919%,–
COC(=O)c1ccc(NC(=O)CCc2c(C)nc3c(c(C)nn3C(C)(C)C)c2C)cc1,inactive: -7.51%,–
CCN(C(=O)CSc1nc(-c2ccccc2)no1)c1ccccc1,inactive: 5.55%,–
Cc1ccc2occ(-c3cc(-c4ccc(F)cc4)nc4c3COc3ccc(F)cc3-4)c(=O)c2c1,inactive: 0%,–
Cc1ccccc1CSc1nc(-c2cccc(F)c2)nc2c1Cc1c(CO)cnc(C)c1O2,inactive: -4.41%,–
CN(C)C(=O)c1ccc2c(c1)N(CC(=O)NCc1ccccc1Cl)C(=O)C1CCCCN21 (stereo not given),inactive: -1.14%,–
COc1ccc(OC)c(CNC(=O)c2nn(C)c3c2CS(=O)(=O)c2ccccc2-3)c1,inactive: -0.891%,–
CC(=O)Nc1ccc(Nc2ncnc3c2cnn3C)cc1,inactive: 1.7%,–
CCCN(CCC)C(=O)Cn1c(=O)n(CCCCCC(=O)NCc2ccc3c(c2)OCO3)c(=O)c2sccc21,inactive: 0.652%,–
CCOc1ccccc1CNC(=O)c1oc2c(c1C)-c1[nH]ncc1CC2,inactive: -1.46%,–
CC1CCN(c2ncnc3c2c(-c2ccccc2)cn3-c2ccc(Br)cc2)CC1,inactive: 7.89%,–
CCOC(=O)c1c(NC(=O)c2cc(OC)c(OC)c(OC)c2)sc2c1CCCC2,inactive: 3.65%,–
COc1ccccc1-c1noc(CCCC(=O)Nc2cccc(C(F)(F)F)c2)n1,inactive: 1.1%,–
O=C(CN1C(=O)C2(SCC(=O)N2c2cccc(Cl)c2)c2ccccc21)NCc1ccccc1 (stereo not given),inactive: 2.57%,–
